Reference: publication PMC9911399, “Two distinct binding modes provide the RNA-binding protein RbFox with extraordinary sequence specificity”
Numbering of substitutions follows the chain as printed; changes in the protein carry UniProt numbers. This is one part of the list.

T1: RBFOX1 RRM RbFoxmut (Fox-RRM*) (Homo sapiens, UniProt Q9NWB1 109-208, R118D;E147R;N151S;E152T)
T1 sequence: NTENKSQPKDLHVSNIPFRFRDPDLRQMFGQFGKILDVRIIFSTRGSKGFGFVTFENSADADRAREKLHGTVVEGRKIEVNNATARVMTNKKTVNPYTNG

B1: CCUCAGU (DNA:RNA)
RNA: GGGAGACCGGAAUUCAGAUUGUCCCCUCAGUUUAAAUCCCGUCGUAGCCACCA
DNA 1: CAATCTGAATTCCGGTCTCCC
DNA 2: TGGTGGCTACGACGGGATT
B2: AUUCUGG (DNA:RNA)
RNA: B1 RNA with C25A, C26U, A29U, U31G
DNA 1: CAATCTGAATTCCGGTCTCCC
DNA 2: TGGTGGCTACGACGGGATT
B3: AUAACCA (DNA:RNA)
RNA: GGGAGACCGGAAUUCAGAUUGUCCAUAACCAUUAAAUCCCGUCGUAGCCACCA
DNA 1: CAATCTGAATTCCGGTCTCCC
DNA 2: TGGTGGCTACGACGGGATT
B4: GUUUUGC (DNA:RNA)
RNA: B1 RNA with C25G, C26U, C28U, A29U, U31C
DNA 1: CAATCTGAATTCCGGTCTCCC
DNA 2: TGGTGGCTACGACGGGATT
B5: UAAUUGG (DNA:RNA)
RNA: B3 RNA with A25U, U26A, A28U, C29U, C30G, A31G
DNA 1: CAATCTGAATTCCGGTCTCCC
DNA 2: TGGTGGCTACGACGGGATT
B6: AAGCCUC (DNA:RNA)
RNA: B3 RNA with U26A, A27G, A28C, C30U, A31C
DNA 1: CAATCTGAATTCCGGTCTCCC
DNA 2: TGGTGGCTACGACGGGATT
B7: CCGGGAG (DNA:RNA)
RNA: B1 RNA with U27G, C28G, A29G, G30A, U31G
DNA 1: CAATCTGAATTCCGGTCTCCC
DNA 2: TGGTGGCTACGACGGGATT
B8: AAUACCA (DNA:RNA)
RNA: B3 RNA with U26A, A27U
DNA 1: CAATCTGAATTCCGGTCTCCC
DNA 2: TGGTGGCTACGACGGGATT
B9: AAGAACU (DNA:RNA)
RNA: B3 RNA with U26A, A27G, C29A, A31U
DNA 1: CAATCTGAATTCCGGTCTCCC
DNA 2: TGGTGGCTACGACGGGATT
B10: GAUGGUU (DNA:RNA)
RNA: B1 RNA with C25G, C26A, C28G, A29G, G30U
DNA 1: CAATCTGAATTCCGGTCTCCC
DNA 2: TGGTGGCTACGACGGGATT
B11: GCUUCCG (DNA:RNA)
RNA: B3 RNA with A25G, U26C, A27U, A28U, A31G
DNA 1: CAATCTGAATTCCGGTCTCCC
DNA 2: TGGTGGCTACGACGGGATT
B12: UUAGUGC (DNA:RNA)
RNA: B3 RNA with A25U, A28G, C29U, C30G, A31C
DNA 1: CAATCTGAATTCCGGTCTCCC
DNA 2: TGGTGGCTACGACGGGATT
B13: GACUCAU (DNA:RNA)
RNA: B3 RNA with A25G, U26A, A27C, A28U, C30A, A31U
DNA 1: CAATCTGAATTCCGGTCTCCC
DNA 2: TGGTGGCTACGACGGGATT
B14: ACGUUUG (DNA:RNA)
RNA: B3 RNA with U26C, A27G, A28U, C29U, C30U, A31G
DNA 1: CAATCTGAATTCCGGTCTCCC
DNA 2: TGGTGGCTACGACGGGATT
B15: UAUGGAC (DNA:RNA)
RNA: B1 RNA with C25U, C26A, C28G, A29G, G30A, U31C
DNA 1: CAATCTGAATTCCGGTCTCCC
DNA 2: TGGTGGCTACGACGGGATT
B16: UAUCUGU (DNA:RNA)
RNA: B1 RNA with C25U, C26A, A29U
DNA 1: CAATCTGAATTCCGGTCTCCC
DNA 2: TGGTGGCTACGACGGGATT
B17: CUGGGCG (DNA:RNA)
RNA: B3 RNA with A25C, A27G, A28G, C29G, A31G
DNA 1: CAATCTGAATTCCGGTCTCCC
DNA 2: TGGTGGCTACGACGGGATT
B18: CGGGUUG (DNA:RNA)
RNA: B1 RNA with C26G, U27G, C28G, A29U, G30U, U31G
DNA 1: CAATCTGAATTCCGGTCTCCC
DNA 2: TGGTGGCTACGACGGGATT
B19: CGGCCAA (DNA:RNA)
RNA: B3 RNA with A25C, U26G, A27G, A28C, C30A
DNA 1: CAATCTGAATTCCGGTCTCCC
DNA 2: TGGTGGCTACGACGGGATT
B20: UGGCGCG (DNA:RNA)
RNA: B3 RNA with A25U, U26G, A27G, A28C, C29G, A31G
DNA 1: CAATCTGAATTCCGGTCTCCC
DNA 2: TGGTGGCTACGACGGGATT
B21: AACGGUU (DNA:RNA)
RNA: B3 RNA with U26A, A27C, A28G, C29G, C30U, A31U
DNA 1: CAATCTGAATTCCGGTCTCCC
DNA 2: TGGTGGCTACGACGGGATT
B22: GUCAUCC (DNA:RNA)
RNA: B3 RNA with A25G, A27C, C29U, A31C
DNA 1: CAATCTGAATTCCGGTCTCCC
DNA 2: TGGTGGCTACGACGGGATT
B23: CAUAUAA (DNA:RNA)
RNA: B3 RNA with A25C, U26A, A27U, C29U, C30A
DNA 1: CAATCTGAATTCCGGTCTCCC
DNA 2: TGGTGGCTACGACGGGATT
B24: AGCCCUG (DNA:RNA)
RNA: B3 RNA with U26G, A27C, A28C, C30U, A31G
DNA 1: CAATCTGAATTCCGGTCTCCC
DNA 2: TGGTGGCTACGACGGGATT
B25: GCCCGAC (DNA:RNA)
RNA: B1 RNA with C25G, U27C, A29G, G30A, U31C
DNA 1: CAATCTGAATTCCGGTCTCCC
DNA 2: TGGTGGCTACGACGGGATT
B26: CGCACAU (DNA:RNA)
RNA: B3 RNA with A25C, U26G, A27C, C30A, A31U
DNA 1: CAATCTGAATTCCGGTCTCCC
DNA 2: TGGTGGCTACGACGGGATT
B27: CCGUGAU (DNA:RNA)
RNA: B1 RNA with U27G, C28U, A29G, G30A
DNA 1: CAATCTGAATTCCGGTCTCCC
DNA 2: TGGTGGCTACGACGGGATT
B28: CUCUAAU (DNA:RNA)
RNA: B1 RNA with C26U, U27C, C28U, G30A
DNA 1: CAATCTGAATTCCGGTCTCCC
DNA 2: TGGTGGCTACGACGGGATT
B29: UCCUCUG (DNA:RNA)
RNA: B3 RNA with A25U, U26C, A27C, A28U, C30U, A31G
DNA 1: CAATCTGAATTCCGGTCTCCC
DNA 2: TGGTGGCTACGACGGGATT
B30: AACAGCA (DNA:RNA)
RNA: B3 RNA with U26A, A27C, C29G
DNA 1: CAATCTGAATTCCGGTCTCCC
DNA 2: TGGTGGCTACGACGGGATT
B31: GCCUCAG (DNA:RNA)
RNA: B3 RNA with A25G, U26C, A27C, A28U, C30A, A31G
DNA 1: CAATCTGAATTCCGGTCTCCC
DNA 2: TGGTGGCTACGACGGGATT

Each binder was assayed against T1, RBFOX1 RRM RbFoxmut (Fox-RRM*) (assay: EMSA; HiTS-Eq, 1 nM pool, 10 min; buffer printed only for the single-RNA assays: 10 mM Tris pH 7.5, 150 mM NaCl, 3.4 mM EDTA, 0.001% NP-40, 30 C). Details: tags: His6 N-terminal (pET28a); label: 5' 32P.
How it was run: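 Purified RbFox RRM (wild type or mutant) was equilibrated for 10 min in 50 µL with 1 nM of a 5′-radiolabelled pool of RNA with 7 randomized nucleotides, its flanks annealed to DNA oligonucleotides, across increasing protein concentrations. Free RNA was separated by 8% native PAGE, excised, reverse-transcribed, PCR-barcoded and sequenced on an Illumina HiSeq 2500. Relative association constants came from read-count changes of each variant against the control reaction, normalised to the cognate motif.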
B1 was tested, and the binding signal was 0.0814 KA relative to UGCAUGU. In the case of B2, the binding signal is reported as 0.0721 KA relative to UGCAUGU. In the case of B3, the binding signal is reported as 0.142 KA relative to UGCAUGU. In the case of B4, the binding signal is reported as 0.116 KA relative to UGCAUGU. In the case of B5, the binding signal is reported as 0.0719 KA relative to UGCAUGU. With B6 the binding signal was 0.039 KA relative to UGCAUGU. With B7 the binding signal was 0.122 KA relative to UGCAUGU. For B8, the binding signal was 0.078 KA relative to UGCAUGU. B9 was tested, and the binding signal was 0.0822 KA relative to UGCAUGU. In the case of B10, the binding signal is reported as 0.0937 KA relative to UGCAUGU. In the case of B11, the binding signal is reported as 0.0906 KA relative to UGCAUGU. In the case of B12, the binding signal is reported as 0.125 KA relative to UGCAUGU. For B13, the binding signal was 0.0995 KA relative to UGCAUGU. With B14 the binding signal was 0.269 KA relative to UGCAUGU. B15 was tested, and the binding signal was 0.0737 KA relative to UGCAUGU. In the case of B16, the binding signal is reported as 0.067 KA relative to UGCAUGU. In the case of B17, the binding signal is reported as 0.158 KA relative to UGCAUGU. With B18 the binding signal was 0.66 KA relative to UGCAUGU. For B19, the binding signal was 0.0685 KA relative to UGCAUGU. In the case of B20, the binding signal is reported as 0.19 KA relative to UGCAUGU. For B21, the binding signal was 0.0662 KA relative to UGCAUGU. B22 was tested, and the binding signal was 0.112 KA relative to UGCAUGU. With B23 the binding signal was 0.095 KA relative to UGCAUGU. With B24 the binding signal was 0.0683 KA relative to UGCAUGU. In the case of B25, the binding signal is reported as 0.0966 KA relative to UGCAUGU. In the case of B26, the binding signal is reported as 0.0644 KA relative to UGCAUGU. For B27, the binding signal was 0.0964 KA relative to UGCAUGU. In the case of B28, the binding signal is reported as 0.082 KA relative to UGCAUGU. B29 was tested, and the binding signal was 0.108 KA relative to UGCAUGU. B30 was tested, and the binding signal was 0.1 KA relative to UGCAUGU. B31 was tested, and the binding signal was 0.117 KA relative to UGCAUGU.
